Measured values: the supplement of paper PMC11417369
± gives the standard deviation of the averaged measurements. The list shows a part of the results.

The sequences below were run on PfAP2-EXP AP2 domain (GST-tagged) (assay: gcPBM binding intensity (ln(normalized median fluorescence intensity)); higher = stronger DNA binding).
In short: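 An Agilent 4 × 180k array carrying primer-extended double-stranded 36-bp intergenic genomic probes and negative controls received GST-tagged P. falciparum DNA-binding domains expressed in E. coli, about 25 μg on average, for 1 h. The binding buffer contained 1× PBS, 1% milk, 0.2 mg/ml BSA, 0.5% salmon testes DNA and 0.03% Triton X-100. Binding intensity is the top Masliner-normalised natural-log median intensity across replicate spots of either probe orientation, read after Alexa488 anti-GST antibody staining and a 488 nm scan.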

Sequence	gcPBM binding intensity (ln)
ATGTCACAATTTTTCACACACAAAATTTAAATACAT [CACACA_site5168]	8.64 ± 0.42
TAATTATGCGGACACACACACACACCCAACTAAAAA [CACACA_site5427]	8.74 ± 0.42
GCATTATTATATATTTGTACATATTTTTTTTTAAAA [XGTACX_site5436]	9.01 ± 0.22
TTTTTTAAATTATATTATAGCAAATAAATATTAAAA [CACACA_negctrl_site1655]	7.95 ± 0.42
TTTTTTTTTTAAATGTGTCCTCATTATAATATATGT [XGTACX_site5331]	8.37 ± 0.49
AATAAAACATCATCATGTACAAAATTCGTCTTTGTA [XGTACX_site4821]	8.24 ± 0.41
AATTATATATAAAGAAGTACTATTTCAAGGAGTTTT [XGTACX_site3837]	8.46 ± 0.32
CAAAATATATATGACACACACAAAAAAAGTATATTA [CACACA_site1589]	8.6 ± 0.41
TCAAATTTTCAACATTGTACATAAATGTATAAATAT [XGTACX_site6042]	8.25 ± 0.35
TATTGATATATATATATATATATATGTATATACTTA [GTGCAC_negctrl_site111]	8.49 ± 0.21
TTCGCTGTTTTAATTAGTACTTATATATAATATTAT [XGTACX_site1149]	9.01 ± 0.38
CTAAACCTTTTGAGCACACATATATATATATATATA [CACACA_site1782]	10.4 ± 0.16
TTTTTATTTTCATATGTGCACTTATATATATATATA	10.1 ± 0.27
TTTTTATATAAGAAAAAATTATAACAATTTGTTAAT [XGTACX_negctrl_site422]	7.89 ± 0.56
TACAAAAATGTAGTCACACATATGTATACTTTTATG [CACACA_site5607]	8.41 ± 0.42
AGTAATAATATAATTTGTACATATATATATTATAAA [XGTACX_site7138]	8.33 ± 0.35
AGTTTTATGTAGTGTTGTACTTTATACAAATATATA [XGTACX_site990]	8.7 ± 0.35
TTTCTAATTTATATCACACACATATATAAATAGTAA [CACACA_site6156]	8.39 ± 0.35
ATATATATAATTTAAAGTACATATTTAAGAATGAAA [XGTACX_site2238]	8.43 ± 0.23

Sequence	gcPBM binding intensity (ln)
TTTCTAAATAATATACACAAAAAAATAAAACACTAA [TGCATGCA_negctrl_site43]	8.65 ± 0.4
TGAAAAGATAAAAAATGTACATATATATTATATATA [XGTACX_site5678]	8.54 ± 0.3
ATACACAATTATTTTCCTATTATGCAAGCAAATTTA [CACACA_negctrl_site1176]	8.52 ± 0.34
GTTTAACTGTTTTATACACACAATGTAGACAATAAA [CACACA_site8967]	8.69 ± 0.43
ACTTGATTACACAACCACAAGTAATTGAAATTATTT [XGTACX_negctrl_site297]	8.62 ± 0.33
TAAATACATTGACACACACACAAATATGTACATACA [CACACA_site7371]	8.88 ± 0.34
CACTGTAAATAGAAAGTGCAAAAATTGTAAATAAAA [GTGCAC_site9980]	8.87 ± 0.25
GTACAAAAAAAGTGTACACAAAGTAAGACTTTAATT [CACACA_site5068]	8.89 ± 0.33
TATCATGTGCGTGCGTGTACTTAACACACATAATAT [XGTACX_site2404]	8.52 ± 0.2
TTATATGTTTCTTCACGTACGTATAAAAATGAACTT [XGTACX_site1764]	8.77 ± 0.38
TATTTTTATAAAAACTGTACATAATAAATAAAAATA [XGTACX_site4743]	8.9 ± 0.45
AATCAAAGTAATTTAACACACAATTTTAATACTGTT [CACACA_site7169]	8.24 ± 0.58
ATATTGACAAATATTACACACATATATATATATATA [CACACA_site4079]	9.95 ± 0.38
TCATTTATTTTAAGGTGTACCGTTTAAAATCACAAA [XGTACX_site3243]	8.4 ± 0.4
TTGTTCATTATGCACAGTACATAAAAAGTAAAAAAA [XGTACX_site2403]	8.83 ± 0.35
TTTTTTTGCGCGGGAAGAATAAAATTTATAGAATAT [TGCATGCA_negctrl_site306]	8.74 ± 0.5
CAGACATTAATAAGTAGTACACAATAATTGACTAGG [XGTACX_site854]	8.8 ± 0.15
AATTTACACGTACGTGTACACACAAAAATATGTTTT [CACACA_site8242]	9.02 ± 0.29
AATGTTTAATATAACGCATGCCTTAATATAGAATGC [TGCATGCA_site463]	8.83 ± 0.37

Sequence	gcPBM binding intensity (ln)
TATATATGTAGACGTTGTACTTTTTTGTAAGTTTAA [XGTACX_site5638]	8.53 ± 0.42
CATGACATATCCTGTAGTACAACGTATATATAAGAT [XGTACX_site2577]	8.78 ± 0.43
AAAATAAAATCATAAAGTACAAAAAGAAAATAAAAA [XGTACX_site7376]	8.74 ± 0.64
TGTGTCAAGTTTAATAAACGCATATAATATATATGA [CACACA_negctrl_site607]	8.43 ± 0.46
TTTAAATTTTTATATTGTACTTTATTTATTTATTTA [XGTACX_site869]	8.48 ± 0.35
ATGTTTAATTAAATATGTACTTATTATATTATATGT [XGTACX_site8137]	8.42 ± 0.3
TTTAATTTTTATATAACACACATATTGTAATTATGT [CACACA_site4566]	8.38 ± 0.38
AGGAATCTACATATATGTACATATATTGATATATTT [XGTACX_site137]	8.49 ± 0.32
TCAATAAATATACATACATGCATACATACATACATA [TGCATGCA_site197]	8.72 ± 0.47
GAACATTTATTGTGTGTGCACAATTCTTTTTTAACC [GTGCAC_site9697]	8.63 ± 0.19
TGTGTTAATATGAATTTAAACATAAATAAATAAATA [CACACA_negctrl_site1589]	8.27 ± 0.39
AATTTTCAATAGTATACACACAATTATATATATATA [CACACA_site1116]	9.74 ± 0.54
TCTTTTCTCGGAAGGGTGCAAGGAATTAATGAAATA [GTGCAC_site9706]	8.845 ± 0.064
ATATATATATGTTAGGTGCATATATATTTTGTGGAT [GTGCAC_site9964]	9.835 ± 0.021
ATAAAGATAATATATGCACACATATAAATATATAAA [CACACA_site9153]	8.33 ± 0.26
ATAAAAACTACATTCACACAAAAAAAAATCTACAAA [CACACA_site6109]	8.39 ± 0.42
AATAATATTAATAAAAGTACATGTGTAATATATATA [XGTACX_site5922]	9.15 ± 0.3
ATATATATAATATATTGTACATATAATATATATATA [XGTACX_site4792]	9.24 ± 0.042
